The target in test [1] is T1, FLAG-tagged MARF1 fragment containing the isolated NYN domain (human) (UniProt Q9Y4F3).
T1 sequence: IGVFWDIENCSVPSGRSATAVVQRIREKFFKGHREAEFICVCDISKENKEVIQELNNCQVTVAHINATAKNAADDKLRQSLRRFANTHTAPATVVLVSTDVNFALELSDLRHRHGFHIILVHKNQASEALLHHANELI
Kind of test: co-IP; FLAG-tagged MARF1 fragments precipitated with anti-FLAG antibody from benzonase-treated HeLa cell extracts; western blot of endogenous proteins. (In general: Immunoblotting shows a protein as a band on a membrane.)

Sequences of proteins named here, by UniProt entry; tags and fusion partners are left off.
UniProt A5YKK6: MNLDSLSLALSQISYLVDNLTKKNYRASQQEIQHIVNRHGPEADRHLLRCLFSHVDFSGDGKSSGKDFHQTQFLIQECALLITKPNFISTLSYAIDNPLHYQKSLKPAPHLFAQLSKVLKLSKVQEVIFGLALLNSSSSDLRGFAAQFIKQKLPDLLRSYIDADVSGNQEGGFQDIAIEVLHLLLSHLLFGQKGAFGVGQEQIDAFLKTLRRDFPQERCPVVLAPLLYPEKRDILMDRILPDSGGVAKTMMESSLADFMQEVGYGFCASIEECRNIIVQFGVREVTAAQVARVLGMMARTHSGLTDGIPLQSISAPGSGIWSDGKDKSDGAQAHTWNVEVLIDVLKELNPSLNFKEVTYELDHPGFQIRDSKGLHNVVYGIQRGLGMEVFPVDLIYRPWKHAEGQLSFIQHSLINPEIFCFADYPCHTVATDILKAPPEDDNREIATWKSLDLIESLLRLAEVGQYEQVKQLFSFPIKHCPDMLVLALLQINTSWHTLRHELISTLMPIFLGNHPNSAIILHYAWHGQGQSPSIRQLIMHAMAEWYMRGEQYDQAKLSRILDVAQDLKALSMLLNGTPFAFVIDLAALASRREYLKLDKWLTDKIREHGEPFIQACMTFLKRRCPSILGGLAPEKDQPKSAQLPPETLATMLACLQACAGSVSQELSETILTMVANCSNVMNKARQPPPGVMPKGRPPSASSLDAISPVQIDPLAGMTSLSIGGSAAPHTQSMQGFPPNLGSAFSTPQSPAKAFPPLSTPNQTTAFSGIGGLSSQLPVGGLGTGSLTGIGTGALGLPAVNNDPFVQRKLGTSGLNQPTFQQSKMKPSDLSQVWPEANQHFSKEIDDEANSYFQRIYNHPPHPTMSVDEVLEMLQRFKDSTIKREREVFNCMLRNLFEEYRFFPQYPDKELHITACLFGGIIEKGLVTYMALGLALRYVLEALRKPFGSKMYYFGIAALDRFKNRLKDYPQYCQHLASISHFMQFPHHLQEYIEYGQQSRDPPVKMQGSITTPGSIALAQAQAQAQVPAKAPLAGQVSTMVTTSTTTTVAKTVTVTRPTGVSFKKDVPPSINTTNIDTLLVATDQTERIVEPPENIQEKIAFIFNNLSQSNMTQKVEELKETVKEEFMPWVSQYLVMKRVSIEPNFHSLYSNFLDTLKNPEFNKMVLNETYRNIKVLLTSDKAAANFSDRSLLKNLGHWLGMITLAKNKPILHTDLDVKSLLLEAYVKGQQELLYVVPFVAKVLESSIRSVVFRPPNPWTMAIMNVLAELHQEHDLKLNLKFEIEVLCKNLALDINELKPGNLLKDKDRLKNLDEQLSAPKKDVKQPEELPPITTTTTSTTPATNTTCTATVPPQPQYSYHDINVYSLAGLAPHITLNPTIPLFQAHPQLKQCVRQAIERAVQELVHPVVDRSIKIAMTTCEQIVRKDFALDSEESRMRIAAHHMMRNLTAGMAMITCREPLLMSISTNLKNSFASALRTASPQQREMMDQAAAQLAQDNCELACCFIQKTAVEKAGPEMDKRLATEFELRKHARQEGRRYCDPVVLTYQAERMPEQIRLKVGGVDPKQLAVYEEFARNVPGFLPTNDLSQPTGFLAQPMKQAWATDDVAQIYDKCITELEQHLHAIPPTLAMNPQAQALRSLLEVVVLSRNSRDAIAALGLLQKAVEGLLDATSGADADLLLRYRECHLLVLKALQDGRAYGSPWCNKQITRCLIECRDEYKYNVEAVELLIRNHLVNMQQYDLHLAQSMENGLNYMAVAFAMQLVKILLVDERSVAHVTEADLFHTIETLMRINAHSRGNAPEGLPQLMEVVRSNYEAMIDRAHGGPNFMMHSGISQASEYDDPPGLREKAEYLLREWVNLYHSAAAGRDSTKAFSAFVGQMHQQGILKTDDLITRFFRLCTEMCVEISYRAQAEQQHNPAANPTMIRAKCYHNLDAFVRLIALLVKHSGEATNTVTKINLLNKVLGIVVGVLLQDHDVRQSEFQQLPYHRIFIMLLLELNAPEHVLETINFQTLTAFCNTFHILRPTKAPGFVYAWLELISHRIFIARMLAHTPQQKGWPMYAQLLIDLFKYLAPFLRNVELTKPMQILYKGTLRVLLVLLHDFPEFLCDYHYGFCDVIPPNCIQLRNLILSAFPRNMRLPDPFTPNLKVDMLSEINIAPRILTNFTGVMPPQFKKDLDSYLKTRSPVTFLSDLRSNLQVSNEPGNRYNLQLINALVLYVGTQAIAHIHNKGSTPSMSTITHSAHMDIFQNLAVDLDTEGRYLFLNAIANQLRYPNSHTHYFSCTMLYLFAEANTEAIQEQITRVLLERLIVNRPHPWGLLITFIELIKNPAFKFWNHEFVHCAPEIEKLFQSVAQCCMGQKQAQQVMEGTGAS

Test [2] addresses Full-length FLAG-BirA*-MARF1 (human) (UniProt Q9Y4F3). The experiment in a line: co-IP; FLAG-BirA*-MARF1 precipitated with anti-FLAG antibody from benzonase-treated HEK293 cell extracts under mild lysis and wash conditions; western blot of endogenous proteins.
Test [3] concerns the target T2, FLAG-tagged MARF1 C-terminal fragment containing only the C-terminal 172 residues (human) (UniProt Q9Y4F3).
T2 sequence: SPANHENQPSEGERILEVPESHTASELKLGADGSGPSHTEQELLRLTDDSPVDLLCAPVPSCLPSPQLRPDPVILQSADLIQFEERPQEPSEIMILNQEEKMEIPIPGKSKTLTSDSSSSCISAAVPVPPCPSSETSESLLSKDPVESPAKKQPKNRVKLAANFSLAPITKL
The experiment in a line: co-IP; FLAG-tagged MARF1 fragments precipitated with anti-FLAG antibody from benzonase-treated HeLa cell extracts; western blot of endogenous proteins.

Test [4] deals with human MARF1 NYN domain, residues 352-500, wild type (human) (UniProt Q9Y4F3). Kind of test: SEC; size exclusion chromatography of the purified NYN domain in solution; both purified. A general note: In gel filtration, larger molecules generally elute earlier.
For test [5], the target named is human MARF1 NYN domain, residues 352-500, I391M/L457M (human) (UniProt Q9Y4F3). The test is described as above.

These are yes or no findings as the source states them, for the method shown. For some of these results: Binding seen in cells or lysates may run through a third protein. Some entries that bind do so weakly or less than the wild type. For some of these results: Where a sequence is shown, tags or fusion partners need not be part of it.

With “DCP2 decapping enzyme (from UniProt Q8IU60 1-420)”, the binding entry was “no binding” in test [1] and “binds” in test [2].
“CNOT1, the central subunit of the CCR4-NOT deadenylase complex (from UniProt A5YKK6 1-2376)”: the binding result in test [2] was “no binding”.

B1: EDC4 (enhancer of mRNA decapping) (protein, UniProt Q6P2E9 1-1401)
chain: MASCASIDIEDATQHLRDILKLDRPAGGPSAESPRPSSAYNGDLNGLLVPDPLCSGDSTSANKTGLRTMPPINLQEKQVICLSGDDSSTCIGILAKEVEIVASSDSSISSKARGSNKVKIQPVAKYDWEQKYYYGNLIAVSNSFLAYAIRAANNGSAMVRVISVSTSERTLLKGFTGSVADLAFAHLNSPQLACLDEAGNLFVWRLALVNGKIQEEILVHIRQPEGTPLNHFRRIIWCPFIPEESEDCCEESSPTVALLHEDRAEVWDLDMLRSSHSTWPVDVSQIKQGFIVVKGHSTCLSEGALSPDGTVLATASHDGYVKFWQIYIEGQDEPRCLHEWKPHDGRPLSCLLFCDNHKKQDPDVPFWRFLITGADQNRELKMWCTVSWTCLQTIRFSPDIFSSVSVPPSLKVCLDLSAEYLILSDVQRKVLYVMELLQNQEEGHACFSSISEFLLTHPVLSFGIQVVSRCRLRHTEVLPAEEENDSLGADGTHGAGAMESAAGVLIKLFCVHTKALQDVQIRFQPQLNPDVVAPLPTHTAHEDFTFGESRPELGSEGLGSAAHGSQPDLRRIVELPAPADFLSLSSETKPKLMTPDAFMTPSASLQQITASPSSSSSGSSSSSSSSSSSLTAVSAMSSTSAVDPSLTRPPEELTLSPKLQLDGSLTMSSSGSLQASPRGLLPGLLPAPADKLTPKGPGQVPTATSALSLELQEVEPLGLPQASPSRTRSPDVISSASTALSQDIPEIASEALSRGFGSSAPEGLEPDSMASAASALHLLSPRPRPGPELGPQLGLDGGPGDGDRHNTPSLLEAALTQEASTPDSQVWPTAPDITRETCSTLAESPRNGLQEKHKSLAFHRPPYHLLQQRDSQDASAEQSDHDDEVASLASASGGFGTKVPAPRLPAKDWKTKGSPRTSPKLKRKSKKDDGDAAMGSRLTEHQVAEPPEDWPALIWQQQRELAELRHSQEELLQRLCTQLEGLQSTVTGHVERALETRHEQEQRRLERALAEGQQRGGQLQEQLTQQLSQALSSAVAGRLERSIRDEIKKTVPPCVSRSLEPMAGQLSNSVATKLTAVEGSMKENISKLLKSKNLTDAIARAAADTLQGPMQAAYREAFQSVVLPAFEKSCQAMFQQINDSFRLGTQEYLQQLESHMKSRKAREQEAREPVLAQLRGLVSTLQSATEQMAATVAGSVRAEVQHQLHVAVGSLQESILAQVQRIVKGEVSVALKEQQAAVTSSIMQAMRSAAGTPVPSAHLDCQAQQAHILQLLQQGHLNQAFQQALTAADLNLVLYVCETVDPAQVFGQPPCPLSQPVLLSLIQQLASDLGTRTDLKLSYLEEAVMHLDHSDPITRDHMGSVMAQVRQKLFQFLQAEPHNSLGKAARRLSLMLHGLVTPSLP
For the molecule B1, the binding result in test [3] is “binds”; in test [1], “no binding”; in test [2] it was “binds”.

B2: PATL1 (protein, UniProt Q86TB9 1-770)
chain: MFRYESLEDCPLDEDEDAFQGLGEEDEEIDQFNDDTFGSGAVDDDWQEAHERLAELEEKLPVAVNEQTGNGERDEMDLLGDHEENLAERLSKMVIENELEDPAIMRAVQTRPVLQPQPGSLNSSIWDGSEVLRRIRGPLLAQEMPTVSVLEYALPQRPPQGPEDDRDLSERALPRRSTSPIIGSPPVRAVPIGTPPKQMAVPSFTQQILCPKPVHVRPPMPPRYPAPYGERMSPNQLCSVPNSSLLGHPFPPSVPPVLSPLQRAQLLGGAQLQPGRMSPSQFARVPGFVGSPLAAMNPKLLQGRVGQMLPPAPGFRAFFSAPPSATPPPQQHPPGPGPHLQNLRSQAPMFRPDTTHLHPQHRRLLHQRQQQNRSQHRNLNGAGDRGSHRSSHQDHLRKDPYANLMLQREKDWVSKIQMMQLQSTDPYLDDFYYQNYFEKLEKLSAAEEIQGDGPKKERTKLITPQVAKLEHAYKPVQFEGSLGKLTVSSVNNPRKMIDAVVTSRSEDDETKEKQVRDKRRKTLVIIEKTYSLLLDVEDYERRYLLSLEEERPALMDDRKHKICSMYDNLRGKLPGQERPSDDHFVQIMCIRKGKRMVARILPFLSTEQAADILMTTARNLPFLIKKDAQDEVLPCLLSPFSLLLYHLPSVSITSLLRQLMNLPQSAATPALSNPHLTAVLQNKFGLSLLLILLSRGEDLQSSDPATESTQNNQWTEVMFMATRELLRIPQAALAKPISIPTNLVSLFSRYVDRQKLNLLETKLQLVQGIR
As to B2, the binding entry in test [1] is recorded as “no binding”; in test [2] it was “binds”.

B3: human MARF1 NYN domain, residues 352-500, wild type (domain or fragment, UniProt Q9Y4F3 352-500)
chain: PIGVFWDIENCSVPSGRSATAVVQRIREKFFKGHREAEFICVCDISKENKEVIQELNNCQVTVAHINATAKNAADDKLRQSLRRFANTHTAPATVVLVSTDVNFALELSDLRHRHGFHIILVHKNQASEALLHHANELIRFEEFISDLP
In the case of B3, the binding result in test [4] is “no binding”.

B4: human MARF1 NYN domain, residues 352-500, I391M/L457M (domain or fragment, UniProt Q9Y4F3 352-500)
chain: PIGVFWDIENCSVPSGRSATAVVQRIREKFFKGHREAEFMCVCDISKENKEVIQELNNCQVTVAHINATAKNAADDKLRQSLRRFANTHTAPATVVLVSTDVNFAMELSDLRHRHGFHIILVHKNQASEALLHHANELIRFEEFISDLP
B4: the binding result in test [5] is given as “no binding”.

These data come from paper PMC6294520.
